PubChem BioAssay AID360 (National Center for Advancing Translational Sciences (NCATS), 2006)
Among all 48,000 compounds or so, about 550 (1.1%) were called active. Another 4% or so got no clear call; they are omitted. Rule as the data show it: active = potency below about 15 µM; inconclusive = mostly about 16 µM to 33 µM; inactive = weaker than that. The list shows a part of the results.

What follows are molecules tested against Lysosomal acid glucosylceramidase (Homo sapiens) (UniProt P04062) (assay: Glucocerebrosidase). Conditions: purified enzyme, resorufin glucoside fluorescence (screen aimed at inhibitors), 20 min.
Sequence of UniProt P04062 (P04062 whole entry, looked up): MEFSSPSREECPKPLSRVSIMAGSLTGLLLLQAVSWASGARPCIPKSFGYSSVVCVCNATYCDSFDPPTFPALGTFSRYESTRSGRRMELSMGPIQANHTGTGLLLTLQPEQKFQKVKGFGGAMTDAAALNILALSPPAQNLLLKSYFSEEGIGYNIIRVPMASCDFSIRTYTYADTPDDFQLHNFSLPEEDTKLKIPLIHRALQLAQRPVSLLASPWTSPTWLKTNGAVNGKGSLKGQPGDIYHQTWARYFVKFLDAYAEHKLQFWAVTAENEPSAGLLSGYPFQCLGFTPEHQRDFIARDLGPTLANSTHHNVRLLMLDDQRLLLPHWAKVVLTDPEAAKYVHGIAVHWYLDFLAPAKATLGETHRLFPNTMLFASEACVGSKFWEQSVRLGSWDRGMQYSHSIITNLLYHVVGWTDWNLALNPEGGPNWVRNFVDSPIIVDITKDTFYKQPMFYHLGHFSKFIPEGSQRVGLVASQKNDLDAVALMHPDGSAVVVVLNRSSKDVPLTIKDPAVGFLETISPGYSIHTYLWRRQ
Procedure, shortened: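 Compounds titrated against 0.2 nM normal enzyme, 30 uM resorufin beta-D-glucopyranoside substrate, citrate/phosphate buffer with taurocholate and tween-20, pH 5.9. Reaction ran 20 min at room temperature; fluorescence (Ex 548/Em 600) gave AC50.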
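Also: the screen sought inhibitors.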
Potency is read from the fitted curve at half-maximal effect.

Potency, inactive:
CC(=O)c1cccc(NS(=O)(=O)c2c(C)noc2C)c1 > 76.9 µM
O=C(CSc1nc(-c2ccncc2)nn1CC(=O)N1CCCCC1)NC1CCCC1 > 76.9 µM
Cc1cccc2cc(COC(=O)c3ccccn3)c(=O)[nH]c12 > 76.9 µM
Cc1onc(-c2ccccc2)c1C(=O)Nc1ccc2c(C)cc(=O)oc2c1 > 76.9 µM
COc1cc(OC)cc(-c2nnc(SCC(=O)N(Cc3ccccc3)C(C)(C)C)o2)c1 > 76.9 µM
CCn1nnnc1SCC(=O)N1c2ccccc2CCc2ccccc21 > 76.9 µM
CCc1ccc(S(=O)(=O)NCc2cn3ccsc3n2)s1 > 76.9 µM
CCC1(CC)C(=O)N(C)C(=O)NC1=NCc1ccccc1 > 76.9 µM
Cc1cc(C)c2nc(N3CCC(C(=O)N4CCCC4)CC3)sc2c1 > 76.9 µM
O=C(CN1CCN(c2nc(-c3ccc(F)cc3)cs2)CC1)Nc1ccc2c(c1)OCO2 > 76.9 µM
COCCn1c(SCC#N)nnc1-c1ccc2c(c1)OCO2 > 76.9 µM
Cn1c(Cc2cccs2)n[nH]c1=S > 76.9 µM
Cc1ccc(-n2c(Cc3cccn3C)nnc2SCC(=O)N2CCc3ccccc32)cc1 > 76.9 µM
CSc1ccc(-c2nc(CSCC(=O)N3CCOCC3)c(C)o2)cc1 > 76.9 µM
Cn1c(=O)c2c(nc(Br)n2CCCc2ccccc2)n(C)c1=O > 76.9 µM
O=c1c2ccccc2oc2nc(-c3ccco3)n(Cc3ccccc3)c(=O)c12 > 76.9 µM
CC(=O)NCc1ccc(C(=O)CSc2nnc(-c3ccncc3)n2Cc2ccccc2)o1 > 76.9 µM
CN1C(=O)CC(C(=O)O)SC1=Nc1cccc(C(F)(F)F)c1 (stereo not given) > 76.9 µM
CCOc1cccc(NC(=O)CSc2nncn2N)c1 > 76.9 µM
C=CCn1c(-c2c[nH]c3ccccc23)n[nH]c1=S > 76.9 µM
S=c1[nH]ncc2ccccc12 > 76.9 µM
O=S1(=O)CCC(S(=O)(=O)N2CCCCCC2)C1 (stereo not given) > 76.9 µM
CC(=O)Nc1cnn(Cc2ccc(Br)cc2)c1 > 76.9 µM
COc1cc(NC(=O)c2cc(C)on2)cc(OC)c1OC > 76.9 µM
COc1ccccc1-n1nc(C(=O)NCc2ccco2)c2ccccc2c1=O > 76.9 µM
O=C(COC(=O)c1ccccn1)Nc1ccccc1Cl > 76.9 µM
CSc1nnc(-c2cnccn2)n1C > 76.9 µM
CCC(=O)N1CCc2cc(S(=O)(=O)CCC(=O)NCc3ccc4c(c3)OCO4)ccc21 > 76.9 µM
Cc1ccc(S(=O)(=O)N2CCOCC2)cc1C(=O)Nc1ccccn1 > 76.9 µM
Cc1cc(CN(C)C)c(O)c(C2(C)CCCCC2)c1
O=C(Cc1ccccc1)NC1CCN(S(=O)(=O)c2cccc(F)c2)CC1 > 76.9 µM
O=C1CC(c2ccccc2)n2nc(NC(=O)C3CCCO3)nc2N1 (stereo not given) > 76.9 µM
Cc1c(Cl)cccc1NC(=O)CSc1nnc(C)n1-c1ccccc1 > 76.9 µM
Cc1cc(C)c2c(n1)sc1c(O)cc(=O)[nH]c12 > 76.9 µM
CCCCCNC(=O)CCn1c(=O)oc2ccccc21 > 76.9 µM
CC(C)(CNC(=O)C1CCCC1)CNC(=O)C1CCCC1 > 76.9 µM
O=C(COc1ccc(F)cc1Br)NCc1ccccn1 > 76.9 µM
Cn1c(NC(=O)c2cccc(Cn3cc(Cl)cn3)c2)nc2ccccc21 > 76.9 µM
Cc1cc(NC(=O)CSc2nc(-c3ccccc3)c(C#N)c(=O)[nH]2)no1 > 76.9 µM
CCOc1ccc(S(=O)(=O)Nc2cc(OC)ccc2OC)cc1 > 76.9 µM
CN1C(=O)CC(N2CCN(CCN=CC3=C(O)CC(C)(C)CC3=O)CC2)C1=O (stereo not given) > 76.9 µM
CCOC(=O)c1ccccc1NC(=O)COC > 76.9 µM
Cn1c(=O)oc2cc(S(=O)(=O)NCCC(=O)NC3CCCC3)ccc21 > 76.9 µM
O=C(Cn1cnc2c(nnn2Cc2ccc(F)cc2)c1=O)NCc1ccc2c(c1)OCO2 > 76.9 µM
Cc1nc2c(C(=O)N3CCCC3)c[nH]n2c(=O)c1Cc1ccc(F)cc1Cl > 76.9 µM
CCCCn1cnc2cc(NCc3ccncc3)ccc21 > 76.9 µM
COCC(C)NCc1ccc(C)cc1C (stereo not given) > 76.9 µM
Nc1ccccc1C(=O)Nc1cccc(C(=O)O)c1 > 76.9 µM
Cc1ccc(Cn2c(SCC(N)=O)nc3c2c(=O)n(C)c(=O)n3C)cc1 > 76.9 µM
NC(=O)CSc1nnc(COc2ccccc2)n1CCc1ccccc1 > 76.9 µM
Clc1cccc(-c2nn3c(Cn4cnc5ccccc54)nnc3s2)c1 > 76.9 µM
Cc1csc(NC(=O)C2CCCN2C(=O)Oc2ccccc2)n1 (stereo not given) > 76.9 µM
Cc1nnc2sc(-c3ccc(-c4ccc(Cl)c(C(F)(F)F)c4)o3)nn12 > 76.9 µM
Cn1c(SCC(=O)N2CCc3ccccc32)nc2cccnc21 > 76.9 µM
Cc1nnc(SCC(=O)c2ccc(S(=O)(=O)N3CCOCC3)cc2)n1-c1ccccc1 > 76.9 µM
COc1ccccc1NC(=O)C1CC(=O)OC1c1ccccc1 (stereo not given) > 76.9 µM
O=S(=O)(c1ccc(S(=O)(=O)N2CCN(C3CCCCC3)CC2)cc1)N1CCCCCC1 > 76.9 µM
CCCC(=O)Nc1ccc(C(=O)N2CCCC2)cc1 > 76.9 µM
Cc1cc(C)n2nc(C(=O)OCCOc3cccc(Br)c3)nc2n1 > 76.9 µM
CC(=O)c1c(C)n(-c2ccc(N(C)C)cc2)c2ccc(OCC(N)=O)cc12 > 76.9 µM
